± gives the standard deviation of the averaged measurements. Some of the results follow.
tested on: PfAP2-I AP2 domain 3 (GST-tagged); assay: gcPBM binding intensity (ln(normalized median fluorescence intensity)); higher = stronger DNA binding
Method in brief: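 An Agilent 4 × 180k array carrying primer-extended double-stranded 36-bp intergenic genomic probes and negative controls received GST-tagged P. falciparum DNA-binding domains expressed in E. coli, about 25 μg on average, for 1 h. The binding buffer contained 1× PBS, 1% milk, 0.2 mg/ml BSA, 0.5% salmon testes DNA and 0.03% Triton X-100. Binding intensity is the top Masliner-normalised natural-log median intensity across replicate spots of either probe orientation, read after Alexa488 anti-GST antibody staining and a 488 nm scan.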

Point of comparison: “TCAAATAGAAAATAAAGTACTTAATTTTTAGGAACA [XGTACX_site1446]”, “gcPBM binding intensity (ln)” value 7.92 ± 0.3. Against it:
- CTGTAAAATGTGATGGTGCATATTAATTTAGTTGTA — higher, 10.7 ± 0.58
- AACACAAATAAGTATTTGGATTATATTACATTTATA [CACACA_negctrl_site465] — within error, 7.38 ± 0.61
- ATAAAAATAAATAAATGTACATATATATATATATAT [XGTACX_site1277] — higher, 9.24 ± 0.23
- TAAATAGGAAAACCTATACACACTTTAAAAAAAATA [CACACA_site1621] — within error, 7.42 ± 0.51
- TAAATTAAAAAAAAAAACAAAAAAAAAGCAACAAAA [CACACA_negctrl_site1318] — within error, 7.67 ± 0.57
- AGTATTTCCATATGTACATGCAAAAGGAAAGATATA [TGCATGCA_site850] — within error, 7.99 ± 0.64
- TATTTTTCCCTATGCACACACACCGTATATATAATA [CACACA_site4758] — higher, 9.445 ± 0.035
- AAATATAAAAATAGCACACATATATACATATATATA [CACACA_site56] — within error, 8.13 ± 0.59
- TGTCCAATTTTTTATCGTACATAATATATAAATAAA [XGTACX_site1705] — within error, 8.01 ± 0.33
- TATAAAAATGTGTATGTACACACTTTATTTTTAATA [CACACA_site2532] — within error, 7.63 ± 0.21
- AGAAACGTAAGTTATACACACATGTCAAAAGAAAAA [CACACA_site312] — within error, 7.72 ± 0.79
- TTGAATATTTAAAAACGTACATAAAATTATTTGATT [XGTACX_site5422] — within error, 7.82 ± 0.38
- ATATATATATTTATAGTGCATTTATATTAAAATATC [GTGCAC_site9818] — higher, 10.54 ± 0.021
- ATATATATTTATATATGTACATATTAATATATATAT [XGTACX_site1144] — higher, 8.45 ± 0.15
- ATATTTATATTTTTTTGTACATATATAATTTTATAA [XGTACX_site4151] — within error, 7.84 ± 0.49
- TTATAGTATTTATAATGTACAAATATATTTTATTTT [XGTACX_site5015] — within error, 7.56 ± 0.41
- AATATTTTAAGGCACACACACAAAAAAAAAAAAAAA [CACACA_site2890] — higher, 10.3 ± 0.59
- ATTTAAGGGGTGTATGCACACGACTATTCCGTATGA [CACACA_site4738] — within error, 8.6 ± 0.39
- TAATTTAGTATCTTTACATGCGGGCATTATGTCATA [TGCATGCA_site167] — within error, 7.97 ± 0.35
- CCAAAGGGGGTATACTGTACATATAGTGGTTATATA [XGTACX_site1515] — higher, 8.77 ± 0.28
- ATAGGCACTTTTTGCACACGTATGAATAACAAAATA [CACACA_site5069] — higher, 9.54 ± 0.13
- TGAAAATTTTAATGAGGAAATAAAATAAATATAATA [GTGCAC_negctrl_site159] — within error, 7.6 ± 0.67
- TTTATTAATAGACACACACACACACGCAAAATAAAA [CACACA_site6255] — within error, 8.4 ± 0.23
- CTTTATTATAAGATTACACACATGTGTTATAATTTA [CACACA_site3169] — within error, 7.64 ± 0.54
- TTGACCTTAAGAAGGTTGCACTAATCATTCAAAGTT — within error, 8.71 ± 0.56
- CCATTTATTATTTGGGGTACATTTAATTAATATTTT [XGTACX_site5940] — higher, 8.395 ± 0.007
- TTTTAAACAAAAAATTGTACAATTAGTGTATAATCC [XGTACX_site778] — within error, 8.07 ± 0.35
- AAAAAAAAAAGACACACACACAAATACAAATACATA [CACACA_site6334] — within error, 7.76 ± 0.44
- AAAGGAAATTAAAATTGATTACATATATAAAAAAAC [XGTACX_negctrl_site196] — within error, 7.94 ± 0.57
- AATTTAATATAATGCACACATAAAAAAAAAAAAAAA [CACACA_site123] — higher, 11.2 ± 0.78
- AAGTATTACAACCACACACACACCTATATATTATAT [CACACA_site4158] — within error, 8.07 ± 0.56
- AATGAAAAATGTATCGTTAAAGGGTATCTTAAGGAT [XGTACX_negctrl_site222] — within error, 7.63 ± 0.64
- CCAAAGAAATATAATACACACAAGAATATATTGGAT [CACACA_site6018] — within error, 7.97 ± 0.57
- ACTTGTTTTCAATGTAAAATACAATTTTCATTTATT [CACACA_negctrl_site435] — within error, 7.62 ± 0.66
- ATATTATAAAATAAAAGTACACAATTATATATATAT [XGTACX_site8812] — higher, 8.87 ± 0.17
- AATAAAATGGAATACGGTACACATAATCCTAAAATG [XGTACX_site926] — within error, 7.67 ± 0.66
- TATTTTTAAAATTAAATGAATAAATAAATAAATATA [XGTACX_negctrl_site553] — within error, 7.22 ± 0.41
- TTTATATTTATTGTTGTGCACAGAACCATATTCGTT — higher, 10.8 ± 0.21
- TATCACTATAGACAAGCATGCATATGTACTAATATC [TGCATGCA_site1020] — within error, 7.94 ± 0.47
- TAACATAAATTTAGGAGTACACTTTTTATACATACA [XGTACX_site4066] — within error, 8.04 ± 0.35
- TATATATTTATTTATAGTACACTATTTATGAAAACC [XGTACX_site3062] — within error, 8.24 ± 0.18
- CATTATTATTAACATACACACGTGTTATATACCCCC [CACACA_site9365] — higher, 9.405 ± 0.092
- AAATTCACAATGTTTGGTACACATAAAAAAAAAAGA [XGTACX_site7109] — within error, 8.01 ± 0.61
- AACATACGACAATACGCACACATATCTGTACATATT [CACACA_site5115] — within error, 8.39 ± 0.36
